Measured values reported in PubChem BioAssay AID686979 (National Center for Advancing Translational Sciences (NCATS), 2013).
Several values for one entry are separate records, joined by “and”; a condition that tells them apart may be missing. Equal entries are not always repeated. Hit rate of the full screen: of about 420,000 compounds, about 50,000 (12%) were called active. The inconclusive results got no clear call from the source; some entries with a clear call stand among them for comparison. Calls follow the shape of the dose curve; as a rule, active = well fitted inhibition curve with a large enough effect; inconclusive = small, poorly fitted or top-dose-only effect; inactive = flat fitted curve, though single readings scatter. A potency beside an inconclusive call is a rough fit, not a confirmed value.

Assay: qHTS for Inhibitors of human tyrosyl-DNA phosphodiesterase 1 (TDP1): qHTS in cells in presence of CPT; also: nearly all actives have a fitted effect of over 55% in size
Settings: chicken DT40 Tdp1-/-;hTDP1 cells + 20 nM CPT, ATP luminescence, 48 h; activity change, negative = growth inhibition: at 46.2 µM (top of the series)
Excerpt: Human tyrosyl-DNA phosphodiesterase 1 (TDP1) is a novel repair gene, and we propose to use it as a new target for anticancer drug development. TDP1 is not an essential protein, but under treatment with topoisomerase I poison (camptothecin: CPT), TDP1 works as a critical factor for cell survival. To directly identify novel TDP1 inhibitors active in a cellular environment, we have knocked-out the Tdp1 gene in chicken DT40 cells (Tdp1-/-) and generated a complemented counterpart cells that contains a stable transfection of the human TDP1 gene (Tdp1-/-;hTDP1 cells). For the primary screen, Tdp1-/-;hTDP1 cells will be exposed to small molecules in the presence or absence of CPT, and their growth kinetics will be evaluated after 48 hours by measuring ATP activity. […] The hit compounds will then be evaluated in the presence or absence of CPT using Tdp1-/- cells. […] In tertiary assays, biochemical gel-based assays will be used to assess whether the hit compounds specifically target TDP1. To this end, we have screened this cell line against the MLSMR in two primary screens. In one screen we add CPT and in the other we screen in the absence of CPT; this AID represents the screen where CPT was present. NIH Chemical Genomics Center [NCGC] NIH Molecular Libraries Probe Centers Network [MLPCN] MLPCN Grant: MH095538 Assay Submitter (PI): Yves Pommier, NCI
DT40-hTDP1 cells with 20 nM Camptothecin (add 20 microL of 1 mM CPT stock in 1 L of cell culture medium) were dispensed at 400 cells/5microL/well in tissue culture treated 1536-well white wall/solid bottom assay plates (Greiner Bio-One North America, NC, U.S.A.) using a Multidrop Combi 8 channel dispenser (Thermo Fisher, Waltham, MA, USA). 23 nL compounds and controls were transferred using the pin tool (Kalypsys, San Diego, CA, USA) to the assay plates. The assay plates were then incubated at 37 masculineC for a minimum 48 hr. Three microL of Cell Titer Glo solution was added to the plates and incubated at RT in dark for 30 min. Luminescence was read using ViewLux (Perkin Elmer) with 1 sec exposure slow speed, high gain and 2x binning.
% is scaled to controls: 0 for no effect and ±100 for the full control effect; potency is read from the fitted curve at half-maximal effect; tags tell the direction and shape of the fitted curve.

Row | Structure (SMILES) | Potency | activity change, negative = growth inhibition
1 | CCOCCCNC(=O)/C(C#N)=C/c1cc(OC)c(O)c([N+](=O)[O-])c1 | active: 3.66 µM | –
2 | Cc1ccc(CNC(=O)Cn2nc(C)n3cccc3c2=O)cc1 | – | inactive: -1.16%
3 | Cc1c2cnn(CC(=O)N3CCN(c4ccc(F)cc4)CC3)c(=O)c2c(C)n1Cc1ccc(F)cc1 | active: 23.1 µM | –
4 | CCOC(=O)c1cnc(SC)nc1Oc1cccc(NC(=O)c2ccc(C)cc2)c1 | inconclusive: 25.9 µM [inhibitor, single point] | –
5 | Cc1cc(C)cc(C(=O)Nc2ccc(-c3nc4ncccc4o3)cc2)c1 | active: 20.6 µM | –
6 | CN(C)Cc1cc(C(C)(C)c2cc(CN(C)C)c(O)c(CN(C)C)c2)cc(CN(C)C)c1O | – | inactive: -9.94%
7 | O=C(NCc1ccc(Cl)cc1)c1cc(S(=O)(=O)N2CCCCC2)c[nH]1 | inconclusive: 20.6 µM [inhibitor, single point] and inconclusive: 29.1 µM [inhibitor, single point] | –
8 | CCN1CCSc2ccc(C(=O)NC(C)c3ccccc3)cc21 (centres undefined) | active: 18.4 µM | –
9 | CCOc1ccc(S(=O)(=O)N2CCOCC2)cc1NS(=O)(=O)c1ccc(OC)c([N+](=O)[O-])c1 | – | inactive: -22.3%
10 | CCOc1ccc(N2CC(c3nc4ccccc4n3Cc3cccc(Cl)c3)CC2=O)cc1 (centres undefined) | inconclusive: 5.17 µM [inhibitor, single point] | –
11 | C/C(=N\NC(=S)NCC(C)(C)C)c1cc(F)cc(F)c1O | active: 14.6 µM | –
12 | COc1ccc2c(CC(=O)N[C@@H](Cc3ccccc3)C(=O)O)cc(=O)oc2c1 | – | inactive: 9.35%
13 | Cc1nn(CCCC(=O)NCc2ccc(F)cc2)c(=O)c2c1sc1ccccc12 | – | inactive: -25.1%
14 | Cn1c(SCC(=O)Nc2cc(C(C)(C)C)nn2-c2ccccc2)nc2ccccc21 | inconclusive: 18.4 µM [inhibitor, single point] | –
15 | CC1=CC(C)(C)N(C(=O)CSc2nnc(N)s2)c2c(C)cc(C)cc21 | inconclusive: 18.4 µM [inhibitor, partial curve] | –
16 | O=C(NC1CCCCCC1)c1ccccc1-c1ccccc1 | inconclusive: 25.9 µM [inhibitor, single point] | –
17 | CC(C)(CN1CCN(Cc2ccccc2)CC1)NS(=O)(=O)c1ccc(Cl)cc1 | active: 16.4 µM | –
18 | COc1cc2nncc(SC)c2cc1OC | inconclusive: 4.11 µM [inhibitor, single point] | –
19 | O[C@@H]1C[C@H](c2ccccc2)N(Cc2cccs2)C[C@H]1n1cc(C2CC2)nn1 | – | inactive: -14.3%
20 | Cn1c(NC(=O)Cc2cccc3ccccc23)cc(=O)n(C)c1=O | – | inactive: -27.3%
21 | CCOC(=O)c1cc(-c2ccccc2)n(-c2cccc(C(=O)Nc3ccc(F)c(F)c3)c2)c1C | inconclusive: 29.1 µM [inhibitor, single point] | –
22 | Cc1cccc(NS(=O)(=O)c2ccc3oc(=O)ccc3c2)c1C | inconclusive: 18.4 µM [inhibitor, single point] | –
23 | COCCn1c(C)cc(C(=O)CSc2cc(C)c3ccccc3n2)c1C | inconclusive: 23.1 µM [inhibitor, single point] | –

Row | Structure (SMILES) | Potency | activity change, negative = growth inhibition
24 | COc1ccccc1CNc1nc(-c2c(C)noc2C)nc2ccccc12 | inconclusive: 29.1 µM [inhibitor, single point] | –
25 | COc1c(C)cc(S(=O)(=O)NCCc2c(C)[nH]c3ccccc23)c(C)c1C | inconclusive: 23.1 µM [inhibitor, single point] | –
26 | COc1cc(/C=N/NC(=O)c2cc(-c3ccccc3)nc3ccccc23)ccc1O | inconclusive: 9.2 µM [inhibitor, partial curve, poor fit] | –
27 | COc1ccccc1CNC(=O)CCn1c(=O)c2ccccc2n(CC(=O)Nc2cccc(Cl)c2)c1=O | inconclusive: 18.4 µM [inhibitor, single point] | –
28 | CC1(C)CC(Cc2nc(=S)[nH][nH]2)C(=O)O1 (centres undefined) | inconclusive: 29.1 µM [inhibitor, single point] | –
29 | Cc1c(NC(=O)c2cc(-c3ccc(Cl)c(Cl)c3)on2)c(=O)n(-c2ccccc2)n1C | inconclusive: 29.1 µM [inhibitor, single point] | –
30 | Cc1cccc(N2CCN(C(=O)c3cc(S(=O)(=O)N4CCOCC4)cn3C)CC2)c1C | inconclusive: 25.9 µM [inhibitor, single point] | –
31 | COC(=O)N/N=C\c1cc(Br)ccc1OCc1ccccc1 | inconclusive: 23.1 µM [inhibitor, single point] | –
32 | Cc1cnc(C2OCCO2)c2cccc(N)c12 | inconclusive: 7.31 µM [inhibitor, partial curve] | –
33 | C=CCn1c(C)cc(-c2csc(NC(=O)CCc3nc4ccccc4c(=O)[nH]3)n2)c1C | inconclusive: 29.1 µM [inhibitor, single point] | –
34 | C/C(=N\NC(=O)c1cccc(Br)c1)c1cccnc1 | – | inactive: -11.2%
35 | Cc1ccc(Cc2c(-c3ccccc3)nc3ccc(Cl)cn23)cc1 | – | inactive: -24.5%
36 | CCOC(=O)C1CCCN(C(=O)Nc2ccccc2)C1 (centres undefined) | – | inactive: -4.6%
37 | O=C(NCCCn1ccnc1)Nc1ccc(Cl)cc1 | – | inactive: -7.74%
38 | CN(C(=O)COc1ccccc1C(=O)Nc1ccccc1)c1ccccc1 | inconclusive: 35.5 µM [inhibitor, single point] | –
39 | Cc1ccc(S(=O)(=O)N2CCN(c3nc(-c4cccs4)nc4ccccc34)CC2)c(C)c1 | inconclusive: 12.6 µM [inhibitor, partial curve, poor fit] | –
40 | COC(=O)c1nnn(-c2nc(N3CCOCC3)nc(N3CCOCC3)n2)c1C | inconclusive: 10.3 µM [inhibitor, partial curve, poor fit] | –
41 | COc1ccc(C2=CC(=O)N(Nc3ccccc3)C2=O)cc1 | active: 18.4 µM | –
42 | COc1ccc(/C(C)=N/Nc2nccnc2Cl)cc1 | – | inactive: -16%
43 | CCOc1ccc(S(=O)(=O)NCC(c2ccco2)S(=O)(=O)c2cccs2)cc1 (centres undefined) | inconclusive: 29.1 µM [inhibitor, single point] | –
44 | CC(=O)c1c(C)[nH]c(C(=O)NC(C)c2ccccc2)c1C (centres undefined) | inconclusive: 23.1 µM [inhibitor, partial curve, poor fit] | –
45 | O=C(Nc1ccnn1C1CCN(Cc2cc(Cl)ccc2O)CC1)C1CC1 | inconclusive: 20.6 µM [inhibitor, partial curve] | –
46 | O=C(Cn1cc(Cl)c([N+](=O)[O-])n1)NCCC1=CCCCC1 | – | inactive: 5.76%

Row | Structure (SMILES) | Potency | activity change, negative = growth inhibition
47 | COc1ccccc1CCn1c(=O)c(-c2ccc(F)c(F)c2)nc2cncnc21 | – | inactive: -3.46%
48 | c1ccc2c(c1)c1c(c3ccccc32)CN2CCCC2C1 (centres undefined) | active: 5.17 µM | –
49 | CC1(C(=O)OCC(=O)N2c3ccccc3Sc3ccccc32)CC1(Cl)Cl (centres undefined) | inconclusive: 4.61 µM [inhibitor, full curve] | –
50 | CC(C)C[C@H](NC(=O)c1nc[nH]c1C(=O)N[C@@H](CCCCNC(=O)OC(C)(C)C)C(=O)OC(C)(C)C)C(=O)OC(C)(C)C | active: 20.6 µM | –
51 | COc1ccc2ccccc2c1-c1sc(Nc2ccccc2)n[n+]1-c1ccc(F)cc1 | active: 20.6 µM | –
52 | COC(=O)c1ccccc1COn1c(=O)c[n+]([O-])c2ccccc21 | inconclusive: 29.1 µM [inhibitor, single point] | –
53 | COc1ccc(OC)c2[nH]c(=O)c(CCNC(=O)c3ccc(Br)o3)cc12 | inconclusive: 18.4 µM [inhibitor, partial curve] | –
54 | CCNC(=O)C1(C)CCCN(CCOc2ccc(Cl)cc2)C1 (centres undefined) | inconclusive: 29.1 µM [inhibitor, single point] | –
55 | CCn1c(SCC(=O)Nc2cc(OC)c(OC)c(OC)c2)nnc1-c1cccs1 | inconclusive: 20.6 µM [inhibitor, single point] | –
56 | N#Cc1cc2ccc(N3CCOCC3)cc2cc1C#N | active: 7.31 µM | –
57 | CCC1CCC(C(=O)NC(CCSC)C(=O)NCCN(CC(C)C)CC(C)C)CC1 (centres undefined) | inconclusive: 29.1 µM [inhibitor, single point] | –
58 | Cc1ccccc1-c1ccc(CN2CCN(C)C(CCO)C2)cc1 (centres undefined) | inconclusive: 25.9 µM [inhibitor, single point] | –
59 | Cc1oc(-c2cccc(F)c2)nc1CN1CCCCC1CCc1ccccn1 (centres undefined) | inconclusive: 18.4 µM [inhibitor, partial curve, poor fit] | –
60 | COCCN(CC(=O)Nc1cccc(C)c1C)C(=O)C1(c2ccc(Cl)cc2)CCC1 | inconclusive: 29.1 µM [inhibitor, single point] | –
61 | COC(=O)c1cccc(NC(=O)c2ccccc2)c1 | – | inactive: -5.57%
62 | CCOc1ccc(OCC(O)CN2CCN(S(=O)(=O)c3cccc(C(F)(F)F)c3)CC2)cc1 (centres undefined) | inconclusive: 29.1 µM [inhibitor, single point] | –
63 | COc1ccc(N2CCN(C(=O)CCc3c(C)nn(-c4ccc(N5CCCC5)nn4)c3C)CC2)cc1 | – | inactive: -24.3%
64 | O=C(N=Nc1c(O)[nH]c2ccc(F)cc12)c1ccc(NS(=O)(=O)c2cccs2)cc1 | – | inactive: 33.1%
65 | COc1ccc(OC)c(C2=Nn3c(nnc3-c3ccncc3)SC2)c1 | inconclusive: 23.1 µM [inhibitor, single point] | –
66 | CCOC(=O)Cc1csc(NC(=O)c2ccoc2C)n1 | inconclusive: 11.6 µM [inhibitor, partial curve] | –
67 | COc1ccc(Nc2nc(NCc3ccco3)nc(N/N=C/c3ccc(O)cc3)n2)cc1 | inconclusive: 29.1 µM [inhibitor, single point] | –
68 | COc1ccc(OC)c(NC(=O)C2CCCN(S(=O)(=O)c3c(C)nn(C)c3C)C2)c1 (centres undefined) | inconclusive: 29.1 µM [inhibitor, single point] and inconclusive: 16.4 µM [inhibitor, partial curve] | –
69 | CCOc1[nH]c(/N=C/c2ccc(OC)cc2)c(C#N)c1C#N | – | inactive: -29.5%
